{"source": "PubChem BioAssay AID1345083", "about": "(National Center for Advancing Translational Sciences (NCATS), 2018)", "note": "Hit rate of the full screen: of about 94,000 compounds, about 6,200 (6.6%) were called active. The inconclusive results got no clear call from the source; some entries with a clear call stand among them for comparison. Calls come from the whole dose curve; as a rule, active = well fitted inhibition curve with a large enough effect; inconclusive = small, poorly fitted or top-dose-only effect; inactive = flat fitted curve, though single readings scatter. Where the call is inconclusive, the potency comes from a doubtful curve fit. % is set by controls: 0 for no effect and ±100 for the full control effect; potency is the fitted concentration of half-maximal effect; tags give direction and shape of the fitted curve.", "data": [{"assay": "Cytotoxic Profiling in HEK 293 Cell Line of Diverse Libraries Using Quantitative High-Throughput Screening; note: nearly all actives have a fitted effect of over 60% in size", "conditions": "HEK 293 viability, ATP luminescence (CellTiter-Glo), 48-72 h; activity change, negative = cytotoxicity: at 115 µM (top of the series) unless noted; series mostly up to 115 µM", "summary_of_the_method": "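Cells seeded first (HEK 293, 250 cells/well), then compound added by pintool. Incubation ran 48 or 72 hr at 37 degree Celsius. CellTiter-Glo was added and luminescence imaged after 10 min at room temperature.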", "values": [{"smiles": "COc1ccccc1-c1cc(C(=O)NCc2ccc(Cl)cc2)nn2cnnc12", "Potency": "inconclusive: 89.1 µM [inhibitor, partial curve, poor fit]"}, {"smiles": "CC(=O)Nc1ccc(CN2CCn3c(nn(-c4ccc(C(F)(F)F)cc4)c3=O)C2)cc1", "Potency": "inconclusive: 63.1 µM [inhibitor, partial curve, poor fit]"}, {"smiles": "CC(=O)NC1(C)CCCN(Cc2cccc(Nc3cccc(C#N)c3)c2)C1", "note": "(centres undefined)", "Potency": "inconclusive: 100 µM [inhibitor, partial curve, poor fit]"}, {"smiles": "CNC(=O)[C@H]1C[C@H](Oc2ccccc2)CN1Cc1cccn1C", "Potency": "inconclusive: 89.1 µM [inhibitor, single point]"}, {"smiles": "Cc1cc(C)cc(N2CCC(NC(=O)c3cc(F)cc(F)c3)C2=O)c1", "note": "(centres undefined)", "Potency": "inconclusive: 35.5 µM [inhibitor, full curve]"}, {"smiles": "CCN1CCN(C(=O)Cn2c(C)ccc(NC(=O)Nc3ccc(C)cc3)c2=O)CC1", "activity change, negative = cytotoxicity": "inactive: -13.8%"}, {"smiles": "COCCN1CCNc2cc(-c3ccc(Oc4ccccc4)cc3)ncc2C1", "Potency": "active: 50.1 µM"}, {"smiles": "Cc1ccsc1C(=O)N1CCN(C(=O)c2nnn3c2COC(c2ccccc2)C3)CC1", "note": "(centres undefined)", "Potency": "inconclusive: 50.1 µM [inhibitor, partial curve, poor fit]"}, {"smiles": "CCC(=O)N1CCc2c(C(=O)NCC(C)C)cccc21", "activity change, negative = cytotoxicity": "inactive: 3.88%"}, {"smiles": "Cn1c(=O)c2ccnn2c2ccc(C(=O)Nc3ccc4c(c3)OCCO4)cc21", "Potency": "active: 35.5 µM"}, {"smiles": "CC(C)c1noc(-c2cccn3c(CNC(=O)c4cccc5[nH]ccc45)nnc23)n1", "Potency": "inconclusive: 7.94 µM [inhibitor, full curve, poor fit]"}, {"smiles": "COc1ccc(-c2ccc3nc(-c4cccc(Cl)c4)oc3c2)c(OC)c1OC", "Potency": "inconclusive: 79.4 µM [inhibitor, single point]"}, {"smiles": "COc1ccccc1CC(=O)NC1CCN(c2cc(C)cc(C)c2)C1=O", "note": "(centres undefined)", "Potency": "inconclusive: 89.1 µM [inhibitor, single point]"}, {"smiles": "COc1ccc(OC)c(S(=O)(=O)N2CCC(C(=O)N3CCCCCCNC(=O)CC3)CC2)c1", "outcome": "inactive"}, {"smiles": "Cc1ncccc1C(=O)N1CCCn2ccnc2C1c1ccccc1", "note": "(centres undefined)", "activity change, negative = cytotoxicity": "inactive: -27%"}, {"smiles": "OC1(c2nc(Nc3ccc(Cl)c(C(F)(F)F)c3)n[nH]2)CCOCC1", "Potency": "inconclusive: 112 µM [inhibitor, partial curve, poor fit]"}, {"smiles": "Cc1ccc(-c2nnc([C@H]3CCN(Cc4cccc(C#N)c4)C3)o2)cc1", "Potency": "inconclusive: 100 µM [inhibitor, partial curve, poor fit]"}, {"smiles": "Cc1cc(C)c(CNC(=O)c2nc(-c3cccnc3)cc3[nH]ccc23)c(=O)[nH]1", "Potency": "inconclusive: 112 µM [inhibitor, partial curve]"}, {"smiles": "O=C(Cc1ccc(-n2cnnn2)cc1)N1CCC2(CC1)[C@H](O)C[C@@H]2O", "outcome": "inactive"}, {"smiles": "O=C(CN1C(=O)C(c2ccccc2)=NC12CCCCC2)N1CCN(c2ccccc2)CC1", "Potency": "inconclusive: 44.7 µM [inhibitor, full curve, poor fit]"}, {"smiles": "CCCc1cc(CN(C)c2nc(CCN)nc3sc(C)c(C)c23)[nH]n1", "Potency": "active: 35.5 µM"}, {"smiles": "CCN1CCN(C(=O)c2cc(-c3cc(Cl)cc(Cl)c3)nc3c2cnn3C)CC1", "activity change, negative = cytotoxicity": "inactive: -2.33%"}, {"smiles": "C#CCNC(=O)C1CCN(c2nccc(Nc3ccc(OC)cc3)n2)CC1", "Potency": "inconclusive: 79.4 µM [inhibitor, partial curve, poor fit]"}, {"smiles": "CN(C)C(=O)c1ccc(-c2ncc3c(n2)OCCN(CC2CC2)C3=O)cc1", "outcome": "inactive [at 172 µM]"}, {"smiles": "Cn1c2c(c3cc(F)ccc31)CN(C(=O)Nc1ccc(Cl)cc1Cl)CC2", "Potency": "inconclusive: 35.5 µM [inhibitor, partial curve, poor fit]"}, {"smiles": "Cc1noc2c(N3CC[S+](=O)([O-])CC3)cc(-c3cccs3)nc12", "Potency": "inconclusive: 112 µM [inhibitor, single point]"}, {"smiles": "Cc1ccccc1N1Cc2c(NC3CCCCCC3)ncnc2N(C)CC1=O", "Potency": "inconclusive: 56.2 µM [inhibitor, partial curve, poor fit]"}, {"smiles": "N#Cc1ccc(CN2CCC(N3Cc4cccn4C3=O)CC2)cc1", "Potency": "inconclusive: 89.1 µM [inhibitor, partial curve, poor fit]"}, {"smiles": "O=C(NC1C[C@H]2CC[C@@H](C1)N2C(=O)c1ccc(OC(F)(F)F)cc1)c1ccncc1", "note": "(some centres undefined)", "Potency": "inconclusive: 89.1 µM [inhibitor, partial curve, poor fit]"}, {"smiles": "COc1ccc(-c2noc(CC3CCN(C(=O)Cc4ccccc4Cl)CC3)n2)cc1", "Potency": "inconclusive: 56.2 µM [inhibitor, partial curve, poor fit]"}, {"smiles": "COc1ccc(CN2C=C(C(=O)OCc3noc(C4CCCCC4)n3)C(C)=NS2(=O)=O)cc1", "Potency": "inconclusive: 35.5 µM [inhibitor, full curve, poor fit]"}, {"smiles": "Cc1ccc(-c2ccc3nnc(CNC(=O)Cc4cccc(C)c4)n3n2)cc1", "activity change, negative = cytotoxicity": "inactive: -11.2%"}, {"smiles": "CCOc1ccc(CN2CC(Oc3ccccc3C(=O)NC3CC3)C2)cc1", "Potency": "inconclusive: 89.1 µM [inhibitor, single point]"}, {"smiles": "Cc1ccc(NC(=O)c2ccc(Cn3ccn4nc5c(c4c3=O)CCCC5)cc2)cc1C", "Potency": "inconclusive: 35.5 µM [inhibitor, full curve, poor fit]"}, {"smiles": "CCOC(=O)N1C[C@@H](CO)[C@@H]2Oc3c(C)cccc3[C@@H]21", "Potency": "inconclusive: 89.1 µM [inhibitor, single point]"}, {"smiles": "CNC(=O)C1CCCCN1Cc1ccc(-c2ccsc2)cc1", "note": "(centres undefined)", "Potency": "inconclusive: 56.2 µM [inhibitor, full curve, poor fit]"}, {"smiles": "CC(NC(=O)c1ccc(OC2CCN(S(=O)(=O)N(C)C)CC2)cc1)c1ccc(F)cc1", "note": "(centres undefined)", "Potency": "inconclusive: 31.6 µM [inhibitor, full curve]"}, {"smiles": "O=C1c2cc(N3CCOCC3)nc(-c3ccc(CO)cc3)c2CN1Cc1ccccc1", "activity change, negative = cytotoxicity": "inactive: -10.1% [at 172 µM]"}, {"smiles": "CN(C)c1ccc(CN2CCC3(CC(Cc4ccccc4)=NO3)C2)cc1", "note": "(centres undefined)", "Potency": "inconclusive: 50.1 µM [inhibitor, partial curve, poor fit]"}, {"smiles": "CN1CC(=O)N(C2CCC2)Cc2c1ncnc2N1CCC(Cc2ccccc2)CC1", "Potency": "inconclusive: 50.1 µM [inhibitor, partial curve, poor fit]"}, {"smiles": "CN1CCOc2c(C(=O)NCc3cccnc3)cc(-c3ccc(CO)cc3)cc21", "Potency": "inconclusive: 100 µM [inhibitor, partial curve, poor fit]"}, {"smiles": "O=C(c1ccc(Cl)nc1)N1CCC(C(=O)N2CCC(c3nc4ccncc4[nH]3)C2)CC1", "note": "(centres undefined)", "outcome": "inactive"}, {"smiles": "O=C(NC1CCCC1)N1CCN(C(=O)c2nc3cccnc3n(C3CC3)c2=O)CC1", "activity change, negative = cytotoxicity": "inactive: -9.04%"}, {"smiles": "c1cc(-c2cc(-c3ccncc3)c3cncn3c2)cc(N2CCOCC2)c1", "Potency": "inconclusive: 56.2 µM [inhibitor, full curve, poor fit]"}, {"smiles": "COc1ccccc1CNC(=O)C1(CCO)CCN(Cc2ccccc2)C1", "note": "(centres undefined)", "Potency": "inconclusive: 89.1 µM [inhibitor, partial curve, poor fit]"}, {"smiles": "O=C(O)c1cnc(-c2ccc(F)cc2)nc1-c1ccncc1", "activity change, negative = cytotoxicity": "inactive: 0.0111%"}, {"smiles": "CCCS(=O)(=O)N1CCC(Oc2ccc(-c3noc(C(C)C)n3)cc2)C1", "note": "(centres undefined)", "Potency": "inconclusive: 44.7 µM [inhibitor, partial curve, poor fit]"}, {"smiles": "CCC(c1cccs1)N1C(=O)[C@H]2CN(C(=O)NC)C[C@H]2C1=O", "note": "(some centres undefined)", "activity change, negative = cytotoxicity": "inactive: 2.35%"}, {"smiles": "C#CCNC(=O)C1CCCN(Cc2cccc(-c3ccc(F)cc3F)c2)C1", "note": "(centres undefined)", "Potency": "active: 44.7 µM"}, {"smiles": "Cc1nn(-c2ccccc2)c2c1C(C)N(C1CCN(C(=O)c3ccccc3)C1)C2=O", "note": "(centres undefined)", "Potency": "active: 44.7 µM"}, {"smiles": "Cc1c(CN2CCN(c3ncc(F)cn3)CC2)[nH]c2ccc(F)cc12", "Potency": "inconclusive: 31.6 µM [inhibitor, partial curve, poor fit]"}, {"smiles": "CC1(C)C(=O)N(Cc2ccccc2F)[C@H]2CN(Cc3cccc(OC(F)(F)F)c3)C[C@H]2[S+]1(=O)[O-]", "Potency": "inconclusive: 50.1 µM [inhibitor, partial curve, poor fit]"}, {"smiles": "CN(C)C[C@@H]1CN(c2ncccn2)C[C@H]1NC(=O)c1cccc2[nH]ccc12", "activity change, negative = cytotoxicity": "inactive: -13.9%"}, {"smiles": "CCn1cc(-c2ccc(Cl)cc2)cc1C(=O)NCCCN1CCOCC1", "Potency": "inconclusive: 50.1 µM [inhibitor, partial curve, poor fit]"}, {"smiles": "C1=C(c2cc(-c3cccc(N4CCOCC4)c3)cn3cncc23)CCOC1", "Potency": "inconclusive: 100 µM [inhibitor, partial curve]"}, {"smiles": "C=CCn1cc2c3c(cccc31)[C@H](CC(C)C)N[C@H](C(=O)N1CCOCC1)C2", "Potency": "active: 100 µM"}, {"smiles": "Cc1ccc(-c2nc(CC(=O)Nc3ccc4c(c3)C(=O)N3CCC[C@H]3C(=O)N4)cs2)cc1", "Potency": "inconclusive: 89.1 µM [inhibitor, single point]"}, {"smiles": "CCNC(=O)NCCc1noc(-c2cccnc2)n1", "activity change, negative = cytotoxicity": "inactive: -3.44%"}, {"smiles": "CC(=O)Nc1ccc(CNC[C@H]2Cn3c(-c4ccc(F)cc4)cnc3CO2)cc1", "Potency": "inconclusive: 100 µM [inhibitor, partial curve, poor fit]"}, {"smiles": "O=C1NCCCCCCN(C(=O)c2cccs2)[C@H]2CCC[C@@H]12", "activity change, negative = cytotoxicity": "inactive: 4.61%"}, {"smiles": "COc1ccc(C(=O)NC(C(=O)N2CCCC2)C2CCN(C(=O)c3ccc(OC)cc3)CC2)cc1", "note": "(centres undefined)", "activity change, negative = cytotoxicity": "inactive: -0.26%"}, {"smiles": "O=S(=O)(NC[C@@H]1CCNC[C@H]1O)c1ccc(OC(F)(F)F)cc1", "Potency": "inconclusive: 56.2 µM [inhibitor, partial curve, poor fit]"}, {"smiles": "COc1ccccc1-c1cn2c(n1)CO[C@@H](CNCc1cccnc1)C2", "Potency": "inconclusive: 89.1 µM [inhibitor, partial curve, poor fit]"}, {"smiles": "O=C(c1ccccn1)N1CCCN(CCn2nc3n(c2=O)CCCC3)CC1", "activity change, negative = cytotoxicity": "inactive: 2.02%"}]}]}
